The text below walks through data of PubChem BioAssay AID488969 (Vanderbilt High Throughput Screening Facility, 2010).

SMILES strings stand for the structures. In all, about 110,000 compounds were measured (“z-score”: median about -0.1, highest 2% from about 2 on). This is one part of the list. The source made the active and inactive calls.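 The calls were made as follows: active = z-score in the third read window above 3 or below -3; inactive = the rest.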

The target in this assay is Metabotropic glutamate receptor 8 (Rattus norvegicus) (UniProt P70579). Description: mGluR8 Gi/Go-coupled signaling modulation – cell-based, rat, thallium flux, HTS, primary screen (AID 488969). Particulars: HEK293 rat mGluR8, GIRK (G protein-gated inwardly rectifying potassium channel) thallium flux, FluoZin2; at 10 µM; stronger effect = higher value; submaximal glutamate (EC20) added with thallium.
UniProt P70579, sequence (P70579 whole entry, looked up): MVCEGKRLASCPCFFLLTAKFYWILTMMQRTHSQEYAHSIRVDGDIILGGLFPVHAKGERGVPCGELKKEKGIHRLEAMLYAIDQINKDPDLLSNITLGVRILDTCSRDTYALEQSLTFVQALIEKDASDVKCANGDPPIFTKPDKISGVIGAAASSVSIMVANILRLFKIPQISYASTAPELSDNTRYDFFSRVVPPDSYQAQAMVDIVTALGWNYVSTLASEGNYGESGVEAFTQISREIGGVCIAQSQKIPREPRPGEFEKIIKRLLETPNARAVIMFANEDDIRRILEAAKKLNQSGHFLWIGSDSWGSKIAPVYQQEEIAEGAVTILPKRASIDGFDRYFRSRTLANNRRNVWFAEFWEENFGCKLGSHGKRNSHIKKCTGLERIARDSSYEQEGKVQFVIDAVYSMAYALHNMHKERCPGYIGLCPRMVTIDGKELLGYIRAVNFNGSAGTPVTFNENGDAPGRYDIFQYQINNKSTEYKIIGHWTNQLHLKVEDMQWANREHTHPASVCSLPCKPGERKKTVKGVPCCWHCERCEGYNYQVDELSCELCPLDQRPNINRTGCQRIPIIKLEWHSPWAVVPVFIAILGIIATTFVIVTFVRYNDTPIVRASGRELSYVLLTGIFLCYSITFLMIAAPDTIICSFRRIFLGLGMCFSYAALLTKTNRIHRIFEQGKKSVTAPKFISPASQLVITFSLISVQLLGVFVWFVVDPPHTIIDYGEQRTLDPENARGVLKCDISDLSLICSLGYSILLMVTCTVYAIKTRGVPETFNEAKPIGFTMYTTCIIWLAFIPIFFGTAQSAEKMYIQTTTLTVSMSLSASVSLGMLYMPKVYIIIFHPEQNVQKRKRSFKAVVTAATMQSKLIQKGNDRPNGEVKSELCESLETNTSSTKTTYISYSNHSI
Molecule `CCOC(=O)CCCn1ncn2c(cc3occc32)c1=O` had a z-score of 0.0743.

Take `CCOc1cccc(CNCCO)c1OCc1ccc(Cl)cc1Cl`: the z-score was 0.93.

On to `Cc1cccc(-n2ncc3c(N4CCCc5ccccc54)ncnc32)c1`, for which the z-score was -0.348.

The molecule `Cc1ccc(/C=C/C2=NN(Cc3ccc(Cl)c(Cl)c3)C(=O)CC2)cc1` returned a z-score of -0.176.

In the case of `COC(=O)Nc1ccc(S(=O)(=O)Nc2ccc(C)cc2)cc1`, the z-score worked out at 0.0148.

In turn, `COc1ccc(C)cc1NS(=O)(=O)c1ccc(NS(=O)(=O)c2ccc(NC(C)=O)cc2)cc1` displayed a z-score of -0.162.

As for `CCN(c1ccccc1)S(=O)(=O)c1ccc(Cl)c(C(=O)OCC(=O)c2[nH]c(C)c(C(C)=O)c2C)c1`, the z-score was -0.83.

For `C=CCn1c(=O)c2c(nc3n2CCN3c2cccc(Cl)c2C)n(C)c1=O`, the z-score is -0.977.

The molecule `S=c1[nH]nc(-c2ccncc2)n1/N=C/c1ccccc1` came in with a z-score of -0.00784.

`N#Cc1nc(-c2ccco2)oc1NCc1cccnc1` gave a z-score of -0.971.

Molecule `C/C(Cn1cnc([N+](=O)[O-])n1)=N\NC(=O)c1cccnc1` registered a z-score of 1.

As to `O=C(Nc1ccccn1)c1ccc(Br)c(S(=O)(=O)N2CCCCC2)c1`, the z-score is -0.7.

`O=C(NN1C(=O)c2ccc3c4c(ccc(c24)C1=O)CC3)c1ccc(Br)cc1`: the z-score is 0.0577.

`CCOc1ccc(NC(=O)COC(=O)Cn2cnnn2)cc1OCC` registered a z-score of -0.0611.

In the case of `CCC(C)NC(=O)c1ccccc1NC(=O)c1ccccc1N(C)S(C)(=O)=O` (configuration not stated), the z-score is -0.269.

Molecule `CCOC(=O)N1CCC(N(C(=O)Nc2ccccc2)C(C)CC)CC1` (configuration not stated) registered a z-score of 0.0228.

For `O=C(Nc1ccccc1N1CCOCC1)c1cccc([N+](=O)[O-])c1`, the z-score is -0.0219.

Consider `O=C(c1cc(C2CC2)on1)N1CCOCC1`, for which the z-score is -0.341.

Turning to `CC1CCN(C(=O)Nc2cccc(NC(=O)N3CCC(C)CC3)c2)CC1`, the z-score is 1.36.

`N#Cc1ccccc1CSc1nc(N2CCCCC2)nc(N2CCCCC2)n1` registered a z-score of -0.0404.

Take `COCCn1nc2cc(C(=O)NCC34CC5CC(CC(C5)C3)C4)ccc2c1OC`: the z-score is -0.188.

In the case of `Cc1cccc(NC(=O)NC(C)CCc2ccccc2)c1` (configuration not stated), the z-score is active: 4.17.

For the molecule `CC(C)n1cc(NC(=O)c2cc(-c3ccccc3)on2)cn1`, the z-score was active: 16.8.

In the case of `Nc1ccc(Oc2ccc3nc(-c4ccccc4)c(-c4ccccc4)nc3c2)cc1`, the z-score is -0.244.

As to `O=C(CCc1ccccc1)Nc1ccc2c(c1)OCCO2`, the z-score is -0.0648.

Molecule `CCCCn1nc(C(=O)N2CCc3ccccc32)c2ccccc2c1=O` gave a z-score of -0.297.

Take `COc1ccc(-n2nc3c(c2NC(=O)c2c(F)cccc2Cl)CS(=O)C3)cc1` (configuration not stated): the z-score was -0.143.

Turning to `CN(C)c1nc2ccccc2c(N)c1-c1ccccc1`, the z-score was active: 3.06.

Regarding `Cc1[nH]c(-c2ccco2)nc1C(=O)O`, the z-score is -0.474.

For the molecule `CCn1nc2cc(C(=O)NCCc3cccs3)ccc2c1OC`, the z-score was -0.218.

`Cc1ccccc1CSc1nnc(-c2ccco2)n1Cc1ccco1` had a z-score of -1.94.

Regarding `COc1ccc(S(=O)(=O)N(C(=O)c2ccco2)c2cc3sc(=O)oc3c3ccccc23)cc1`, the z-score is -0.202.

As for `CCC(C)c1ccc(NC(=O)C2CC2)cc1` (configuration not stated), the z-score turned out to be 0.353.

Molecule `CCN1CCN(C(=O)c2ccccc2N(Cc2ccccc2)S(=O)(=O)c2ccc(C)cc2)CC1` showed a z-score of 0.407.

`N#CC1=C(N)OC2=C(C(=O)CCC2)C1c1ccsc1` (configuration not stated) gave a z-score of 0.481.

In turn, `COc1ccc(-c2nc(CSCC(=O)NCc3ccco3)c(C)o2)cc1` yielded a z-score of -1.17.

Turning to `N#C/C(=C\c1ccc(OCc2ccc(C(=O)O)cc2)cc1)C(=O)N1CCOCC1`, the z-score is -0.463.

Turning to `COC(=O)c1ccc(C)c(NS(=O)(=O)c2ccc(C)c([N+](=O)[O-])c2)c1`, the z-score came out at 0.382.

For `COc1ccc(C2=NN(C(=S)Nc3ccccc3)C(c3ccccc3)C2)cc1` (configuration not stated), the z-score is -0.177.

As to `Cc1ccccc1C1CC(c2ccc(Br)cc2)Nc2nc(N)nn21` (configuration not stated), the z-score amounted to 0.803.

In turn, `O=c1cc(N2CCCCC2)c(-c2ccccc2)nn1Cc1ccc(Cl)cc1Cl` yielded a z-score of 0.0967.

`CCCc1nn(C)c(C(=O)Nc2cccc3ccccc23)c1Cl`: the z-score is -0.306.

Turning to `N#CC1=C(N)Nc2nc3ccccc3n2C1c1ccc(F)cc1` (configuration not stated), the z-score is -0.0445.

In the case of `CCOc1ccccc1NC(=O)CSc1nnc(Cc2cccn2C)n1-c1ccc(F)cc1`, the z-score was -0.87.

Regarding `CCN(CC)S(=O)(=O)c1cc(C(=O)OCC(=O)Nc2c(F)cccc2F)ccc1F`, the z-score was -0.74.

`CCCCC(=O)Nc1cccc(NC(=O)c2ccc(Br)o2)c1` displayed a z-score of -0.493.

`Cn1c(=O)n(Cc2ccccc2)c(=O)c2c1nc(NCC1CCCO1)n2Cc1ccccc1` (configuration not stated) registered a z-score of -0.202.

`CCC(=O)NCCc1nc2ccccc2n1CC` yielded a z-score of 0.0557.

Take `COc1ccc(-n2c(N)c(Br)c(=O)[nH]c2=O)cc1`: the z-score was determined as 0.015.

Molecule `Nn1c(SCC(=O)Nc2ccccc2)nnc1-c1cccnc1` gave a z-score of 1.78.

Take `O=C(COC(=O)/C=C/c1ccccc1)NCCC1=CCCCC1`: the z-score is -0.391.

In turn, `O=C(OCc1ccco1)c1ccc(S(=O)(=O)N2CCCCC2)cc1` came in with a z-score of -0.449.

`CCOC(=O)C1=C(O)CCn2c1nc1ccccc12` came in with a z-score of -0.633.

`CCOc1[nH]n(-c2ccccc2)c(=O)c1C=Nc1ccc(Cl)cc1`: the z-score came to 0.655.

Molecule `CC(=O)Nc1ccc(Br)cc1C(=O)C(=O)O` had a z-score of 0.0606.

As to `Cc1nc2c(C(=O)N3CCN(C)CC3)cnn2c(C)c1Cc1ccc(Cl)cc1`, the z-score was -0.0698.

In turn, `COc1ccc(-n2nc(C(=O)NCC(=O)NCc3ccc(F)cc3)c3ccccc3c2=O)c(OC)c1` gave a z-score of -0.163.

With `COc1ccc(NCc2nnc(SCC(=O)NCc3ccccc3)n2-c2ccccc2OC)cc1`, the z-score was -0.511.

In turn, `CCCOc1ccccc1C1CC(=O)Nc2cc3c(cc21)OCCO3` (configuration not stated) gave a z-score of -0.0266.

The molecule `Cc1ccc(C(=O)Nc2cccc(C(=O)O)c2)cc1` returned a z-score of -1.09.

With `Cc1ccccc1C(=O)NNC(=S)NC(=O)c1ccc(Cl)cc1Cl`, the z-score is active: 4.35.

`O=C(Nc1cccnc1)c1cnn2cccnc12` came in with a z-score of 0.0818.

For `CCC(=O)Nc1cccc(-n2nnnc2SCC(=O)c2ccc(C)c(C)c2)c1`, the z-score was 0.0184.

`CNC(=O)CN(c1ccc(C(C)C)cc1)S(C)(=O)=O` had a z-score of -0.184.

Regarding `CC(=O)Nc1nonc1-c1nc2ccccc2n1Cc1ccccc1`, the z-score worked out at 0.0193.

`CCOC(=O)c1ccc(Nc2nc(C(=O)OCC)nc3ccccc23)cc1`: the z-score was -0.69.

`COc1ccc(OCCSc2ncn[nH]2)cc1`: the z-score amounted to 0.0619.

Molecule `O=C(CNS(=O)(=O)c1ccccc1)NCC(=O)OCc1ccc(C(=O)c2ccccc2)cc1` returned a z-score of -0.608.

Regarding `O=C(O)C1CC(c2cccc(Br)c2)=NO1` (configuration not stated), the z-score is -0.0142.

`O=C(Nc1ccccc1)c1ccncc1` gave a z-score of -0.109.

As for `Clc1ccc(C2=C3CCCCn4c(-c5ccccc5)c[n+](c43)C2)cc1`, the z-score turned out to be 0.498.

For `COC(=O)[C@H](CC(C)C)NC(=O)N1CCN(c2cccc(C(F)(F)F)c2)CC1`, the z-score worked out at 0.055.

On to `Cc1cc(C(=O)CSc2ncccn2)c(C)n1-c1cccc(F)c1`, for which the z-score is -0.391.

The molecule `COc1ccc(CN/C=C2\CCCCC2=O)cc1` yielded a z-score of -0.157.

As to `O=C1CC(C(=O)NC2CCCCC2)C(c2ccccc2)O1` (configuration not stated), the z-score is -0.503.

For `Cc1cc(OCC(=O)Nc2ccncc2)cc(C)c1Br`, the z-score was -0.426.

In the case of `COC(=O)C(C)NC(=O)c1ccc(C(C)(C)C)cc1` (configuration not stated), the z-score is -0.275.

In turn, `Cc1ccc(S(=O)(=O)N2C=CC(C(F)(F)F)=NCC2)cc1` came in with a z-score of -0.16.

In turn, `Cn1c(=O)c(-c2ccccc2N)nc2ccccc21` gave a z-score of -0.598.

Molecule `Oc1ccccc1Oc1c(F)c(F)nc(N2CCCC2)c1F` showed a z-score of -0.2.

The molecule `COc1ccccc1-n1c(CNC(=O)c2ccc(S(=O)(=O)N3CCOCC3)cc2)n[nH]c1=S` gave a z-score of 0.224.

`O=C(COc1ccc(F)cc1)Nc1nccs1` yielded a z-score of -0.265.

Regarding `CN(C)C(=O)NCc1ccc(S(N)(=O)=O)cc1`, the z-score is 0.693.

On to `CC(NC(=O)C(=O)NCCC1=CCCCC1)c1ccccc1` (configuration not stated), for which the z-score was -0.313.

In turn, `CSc1nnc2c(n1)c(C)nn2-c1ccc(C)cc1` returned a z-score of -0.274.

For `N#Cc1c(-c2ccccc2)nc(SCC(=O)N(c2ccccc2)c2ccccc2)[nH]c1=O`, the z-score was -0.79.

Regarding `O=C(Cn1cnc2c(cnn2-c2ccc(F)cc2)c1=O)NCc1ccco1`, the z-score was -0.724.

With `Cc1cc(C(C)(C)C)oc1C(=O)N(CC(=O)NC1CCCC1)Cc1ccccc1`, the z-score was -0.175.

Molecule `CCOC(=O)C1=C(N)N2C(=O)C(C)SC2=C(C(=O)OC)C1c1ccccc1OC` (configuration not stated) gave a z-score of -0.995.

As to `O=S(=O)(c1ccc(Cl)c(Cl)c1)c1snnc1-c1ccccc1`, the z-score worked out at 0.0864.

In turn, `CCOC(=O)C1(CC)NC(c2ccco2)C2C(=O)N(C)C(=O)C21` (configuration not stated) yielded a z-score of 0.134.

In turn, `C=CCOc1c(Br)cc(CNc2ccc(NC(=O)C(C)C)cc2)cc1OCC` returned a z-score of -0.102.

Molecule `O=C(NC1CCCC1)c1cc(Cl)ccc1[N+](=O)[O-]` registered a z-score of 0.0599.

In turn, `CC(C)COc1ccc(S(=O)(=O)NNC(=O)c2cc3ccccc3o2)cc1` yielded a z-score of -0.0828.

On to `C#CC(C)(CC)NC(=O)Cn1nnc(-c2ccc(S(C)(=O)=O)cc2)n1` (configuration not stated), for which the z-score came to 0.167.

`Cc1ccc(C(=O)Nc2ccc3c(c2)OCO3)cc1S(=O)(=O)N1CCCCC1` came in with a z-score of -0.384.

`COc1ccc(-c2cn(-c3ccc(OC)cc3)c(=S)[nH]2)cc1` displayed a z-score of 0.277.

For the molecule `Cc1ccc2occ(C3N[C@H](C(=O)O)CS3)c(=O)c2c1` (some centres not stated), the z-score is -1.32.

`O=C(CCn1cnc(-c2ccccc2)c1-c1ccccc1)N/N=C/c1ccccc1O` showed a z-score of -0.833.

`CCC(CC)C1C(C#N)=C(N)Oc2cc(C)oc(=O)c21` (configuration not stated) yielded a z-score of -2.1.

For the molecule `CCOC(=O)C1CCN(c2c(N(C)Cc3ccco3)c(=O)c2=O)CC1`, the z-score was 0.436.

`CN(C)S(=O)(=O)N(CC(=O)N1CCOCC1)c1ccccc1` displayed a z-score of 0.815.

For `CN1CC(=O)N(CC(=O)Nc2ccc(N(C)C)cc2)c2ccccc2C1=O`, the z-score is 0.128.

With `Cc1ccc(C(=O)COC(=O)c2c(C)cc(=O)oc2C)cc1[N+](=O)[O-]`, the z-score is -0.113.

On to `CCc1c(O)cc(=O)n(-c2ccccc2)c1-c1ccccc1`, for which the z-score is -0.775.

`Cc1noc(C)c1C(=O)OCC(=O)NC(c1ccccc1)c1ccccc1` displayed a z-score of -0.347.

`COc1ccc(CNc2nc(C)c([N+](=O)[O-])c(C)c2C#N)cc1` had a z-score of 0.0989.

`COc1ccc(C2C(C(=O)N3CCCCC3)CC(=O)N2c2ccc(OC)cc2)cc1` (configuration not stated): the z-score is -0.175.

As to `O=C(c1c(F)c(F)c(F)c(F)c1F)N1CCc2ccccc21`, the z-score was -0.447.

Turning to `C=CCNC(=O)C1CC(=O)N(c2ccc(OCC(=O)NCc3ccccc3)cc2)C1` (configuration not stated), the z-score was -0.104.

As to `CCC(=O)c1ccccc1OCCN1C(=O)NC(C)(C)C1=O`, the z-score is -0.129.

Consider `CNC(=O)CSc1nnc(-c2ccco2)n1-c1ccc(C)cc1`, for which the z-score stood at 0.0101.
